# Results: article PMC4336329 (PLoS ONE, 2015)
# About 2,200 (0.71%) of roughly 310,000 compounds showed an effect of 50% or more. Effects have a minus sign here. This is one part of the list.
# Biological target: human ether-à-go-go-related gene (hERG) potassium channel (human, UniProt Q12809)
# Experiment: primary screen, population patch clamp on CHO cells stably expressing hERG
# human ether-à-go-go-related gene (hERG) potassium channel, sequence (Q12809 whole entry, looked up): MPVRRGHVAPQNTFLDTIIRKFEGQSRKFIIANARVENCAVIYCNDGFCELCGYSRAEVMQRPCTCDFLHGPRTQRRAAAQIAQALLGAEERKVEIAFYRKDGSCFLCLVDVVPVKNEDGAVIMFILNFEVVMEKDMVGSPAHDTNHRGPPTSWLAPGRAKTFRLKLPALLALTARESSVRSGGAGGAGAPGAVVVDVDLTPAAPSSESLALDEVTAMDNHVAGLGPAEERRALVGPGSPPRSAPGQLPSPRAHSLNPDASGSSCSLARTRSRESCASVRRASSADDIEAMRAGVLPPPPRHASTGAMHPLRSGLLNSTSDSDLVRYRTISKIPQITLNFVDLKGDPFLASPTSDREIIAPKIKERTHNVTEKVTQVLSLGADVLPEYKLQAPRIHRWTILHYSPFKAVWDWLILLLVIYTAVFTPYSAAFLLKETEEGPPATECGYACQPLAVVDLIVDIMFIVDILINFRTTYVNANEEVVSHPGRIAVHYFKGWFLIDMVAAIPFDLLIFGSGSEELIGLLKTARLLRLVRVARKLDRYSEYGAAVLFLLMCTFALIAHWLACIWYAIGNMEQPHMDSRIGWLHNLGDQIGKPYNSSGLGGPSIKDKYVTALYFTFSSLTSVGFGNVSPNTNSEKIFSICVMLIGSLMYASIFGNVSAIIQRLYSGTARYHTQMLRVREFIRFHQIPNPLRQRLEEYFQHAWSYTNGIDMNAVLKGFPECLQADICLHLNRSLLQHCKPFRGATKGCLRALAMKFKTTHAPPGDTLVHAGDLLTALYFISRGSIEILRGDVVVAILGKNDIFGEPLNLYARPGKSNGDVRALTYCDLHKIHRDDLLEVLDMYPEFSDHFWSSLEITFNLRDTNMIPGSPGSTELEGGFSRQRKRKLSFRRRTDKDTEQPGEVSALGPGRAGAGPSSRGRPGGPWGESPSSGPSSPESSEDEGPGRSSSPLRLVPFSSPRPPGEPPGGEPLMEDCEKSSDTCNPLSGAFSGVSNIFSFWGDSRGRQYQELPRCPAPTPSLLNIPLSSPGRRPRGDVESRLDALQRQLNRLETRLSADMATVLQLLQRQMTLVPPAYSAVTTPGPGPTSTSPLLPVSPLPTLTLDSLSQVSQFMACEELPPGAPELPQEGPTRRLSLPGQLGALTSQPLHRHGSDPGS
row,SMILES,"hERG current change (%, negative = inhibition) at 1uM [%]"
1,CCC(C)N(C(=O)COc1ccc(NC(C)=O)cc1)C1CCS(=O)(=O)C1 (stereo not shown),21.4
2,CCNCC1(c2ccc(OC)c(OC)c2)CCCC1.Cl,7.56
3,COc1ccc(CN2C(=O)c3cccnc3C2Nc2ccc(C)cc2)cc1 (stereo not shown),8.57
4,C/C(CC(=O)NC(C)(C)C)=N\NC(N)=S,13.5
5,CCCCOc1ccc(NC2=NC3(CCCCC3)N=C(N)N2)cc1,17.1
6,Cc1cccc(NC(=S)NCCC(C)C)c1,10.2
7,COc1ccc(CNC(=O)c2sccc2C)cc1,16
8,Cc1cccc(/C=N/NC(=O)c2ccc(NC(=O)c3ccc(Cl)cc3)cc2)n1,17.9
9,Cn1c(Cn2c(=O)sc3ccccc32)nnc1SCC(=O)N1CCCC1,3.07
10,COCC(=O)N(C)c1nnc(-c2ccc([N+](=O)[O-])cc2)s1,8.51
11,CCN(CC)C(=N)N1c2ccccc2CCC1C.Cl (stereo not shown),9.27
12,CCOCCCNC(=O)c1c[nH]c2cc(OC)ccc2c1=O,8.14
13,CCOC(=O)C1(Cc2cccc(Cl)c2)CCCN(C(=O)c2ccoc2C)C1 (stereo not shown),-21.7
14,COc1ccc(OCc2cc(C(=O)N3CCCN(C(C)=O)CC3)no2)c(Cl)c1,3.98
15,CCOC(=O)CS(=O)(=O)c1ccc(O)cc1,26.2
16,O=C(NCc1ccccc1)c1cc2ccccc2o1,8.22
17,COC(=O)c1ccc(/C=N/NC(=O)C(=O)N2CCCCCC2)cc1,12.6
18,COc1ccccc1Nc1cc(C(=O)NCc2cccnc2)c2ccccc2n1,1.29
19,O=C(Nc1nc(-c2cccs2)cs1)c1ccc([N+](=O)[O-])o1,12.1
20,O=C(NC1CCSc2ccccc21)c1ccc(F)cc1 (stereo not shown),11.4

row,SMILES,"hERG current change (%, negative = inhibition) at 1uM [%]"
1,NS(=O)(=O)c1cccc(NC(=S)NC(=O)c2cccc([N+](=O)[O-])c2)c1,-1.67
2,Cc1ccc(Cc2nnc(SCC(=O)Nc3ccccc3C)[nH]c2=O)cc1,2.01
3,O=C(NCc1ccc2c(c1)OCO2)c1c(F)c(F)c(F)c(F)c1F,12.5
4,Cc1nc(C(=O)NC2CCOCC2)sc1C1(C)CC(c2ccccc2)=NO1 (stereo not shown),-7.55
5,CC1C(C#N)=C(SCC(N)=O)NC2=C1C(=O)CC(C)(C)C2 (stereo not shown),17.9
6,O=[N+]([O-])c1ccc(CN2CCOCCOCCOCC2)cc1,-20.5
7,Cc1noc(C)c1C(=O)NNc1ccc(C(C)C)cc1,8.76
8,Cc1nn(C)cc1C(=O)Nc1ccc2c(c1)OCCO2,2.96
9,COc1ccc(OCC(=O)NC(=S)N2CCCc3ccccc32)cc1,8.47
10,Cc1nn(Cc2cccc(Oc3ccccc3)c2)c(C)c1NC(=O)NC12CC3CC(CC(C3)C1)C2,10.6
11,CCOC(=O)c1cnc2c(Cl)cccc2c1NCCN1CCOCC1,-0.725
12,O=c1c(Cl)c(NCc2ccc(F)cc2)cnn1C12CC3CC(CC(C3)C1)C2,1.33
13,Cc1ccc(NS(=O)(=O)c2c(C)[nH]c(C)c2C(=O)N2CCCCC2)cc1Cl,13.7
14,CN(C)S(=O)(=O)c1ccc(Cl)c(NC(=O)COC(=O)CC(NC(N)=O)c2ccc(Cl)cc2)c1 (stereo not shown),10.4
15,O=C(c1ccc(Br)s1)N1CCN(C/C=C/c2ccccc2)CC1,1.78
16,Cc1cccc(NS(=O)(=O)c2ccc(NC(=O)CN(c3cc([N+](=O)[O-])ccc3C)S(C)(=O)=O)cc2)c1,12.4
17,CCc1nc2scc(-c3ccccc3)c2c(=O)n1N,2.81
18,N#C/C(=N\Nc1ccccc1)C(=N)N1CCCCCC1,-4.82
19,CSc1ccc(C(=O)C2CCCN(C(=O)c3ccsc3)C2)cc1 (stereo not shown),-2.61
20,O=C(Nc1cccn(Cc2ccc(F)cc2)c1=O)NC1CCCCC1,4.18

row,SMILES,"hERG current change (%, negative = inhibition) at 1uM [%]"
1,COc1ccc(-c2cc(C(=O)Nc3ccc(OC)c(OC)c3)no2)cc1,11
2,CCN1C(=O)[C@H]2[C@@H](c3ccc(-c4ccc(F)cc4)c(OC)c3)N[C@@](C)(C(=O)OC)[C@H]2C1=O.O=C(O)C(F)(F)F,-1.57
3,O=C(C1CCCO1)N1CCN(c2ncccn2)CC1 (stereo not shown),-1.41
4,CN1C(=O)C(CC(=O)Nc2ccc3c(c2)Cc2ccccc2-3)N(C)C1=O (stereo not shown),2.49
5,CCCCn1nc(C(=O)Nc2cc(C(F)(F)F)ccc2N2CCOCC2)ccc1=O,-39.3
6,Cc1cc(F)ccc1NCc1ccc([N+](=O)[O-])cc1,7.53
7,O=C(OCC(=O)N1CCOCC1)c1cccc(S(=O)(=O)Nc2ccc(F)cc2)c1,8.13
8,COc1ccc(N2CCN(C(=O)CN3C(=O)COc4ccccc43)CC2)cc1,11
9,Cc1[nH]c(C)c(S(=O)(=O)N2CCCCC2)c1C(=O)N1CCCCC1,2.76
10,CC(=O)c1cccc(NC(=S)N2CCN(S(=O)(=O)c3ccccc3)CC2)c1,15.9
11,COc1ccc(NC(=O)c2cccs2)cc1,18.8
12,Cc1cccc(Oc2ccc(S(=O)(=O)N3CCCCC3)cc2N)c1,14.7
13,Cc1c(Cl)ccc2c(C(=O)NCCCn3nccc3C)cc(-c3ccccn3)nc12,9.06
14,O=C(Nc1ccc(Cl)cn1)c1cccnc1,3.59
15,CN=C1C([N+](=O)[O-])=CC=C2C1=NC1(CCCCC1)N2O,7.62
16,O=C(C1CN(C(=O)c2cc3cc(Cl)ccc3o2)c2ccccc2O1)N1CCCCC1 (stereo not shown),12.3
17,COc1ccc(OCC(=O)OCC(=O)N2C(C)CCCC2C)cc1 (stereo not shown),2.56
18,CC(NC(=O)Nc1ccccc1Cl)c1ccc2c(c1)OCO2 (stereo not shown),9.76
